B1: chr2:218264180:218264222:-|3pUTR|ENSG00000127837|msi1_unk|FALSE|overlapping (ssRNA)
RNA: GGGAGUUCUACAGUCCGACGAUCUUGAGGUUCCCGUUCUUUCCCUUCCCAAGUCUCUGGGGGUGGAAAGGAGGAAGAGAUACUAGUUAAAGAUUUUAAAAAUGUAAAUAAAAUAUACUUCCCAGAGACAGAGUCUGUGUGGAUCAACAGAGGAUUGAGCAUCA
B2: chr5:173316791:173316892:-|3pUTR|ENSG00000113739|msi1|total|mutant (ssRNA)
RNA: GGGAGUUCUACAGUCCGACGAUCGGAAACCUUAUACCCAGAGGAAAAUACACACCUGGGGAGUACAUUUGACAAAUUUCCCUCCGGAUUUCGUUAUCUCACCUUGACCCUCAGCCAAGAUUGGUAAAGCUGCGUCCUGGCGAUCAACAGAGGAUUGAGCAUCA
B3: chr1:150648406:150648517:-|CDS|ENSG00000143457|unk|FALSE|unique (ssRNA)
RNA: GGGAGUUCUACAGUCCGACGAUCUCAGCGUAUGGACAAGCGAACACUAGCACUCCUGGUGCUAGCCCACUCCUCUGAUGUGCUAGAGAAUGUCUUCUCCUCUCUGACAGAUGACAAGUAUGAUGUGGCAAUGAAUCGAGCCAACAACAGAGGAUUGAGCAUCA
B4: ENSG00000134323:stop:overlap|stop_codon|ENSG00000134323|stop_codon|NA|stop_codon (ssRNA)
RNA: GGGAGUUCUACAGUCCGACGAUCAAAAAUUGCAGGCAAGACAGCAGCAGUUGCUAAAGAAAAUUGAACACGCUCGGACUUGCUAGACGCUUCUCAAAACUGGACAGUCACUGCCACUUUGCACAUUUUGAUUUUUUUUUUAAACAACAGAGGAUUGAGCAUCA
B5: chr4:189940876:189940977:+|5pUTR|ENSG00000109536|unk|total|mutant (ssRNA)
RNA: GGGAGUUCUACAGUCCGACGAUCAGUGGAACUCUGAGCCAUUCAGCGUUUGGGUGAAGACGGAGGCGGGUUCUACAGAGACGCCGGCUGUCAGGGAGUGUUUAUUUCGCGUCCGCUUCUGUUUCUCCGCGCCCCUGUGCUGCCCAACAGAGGAUUGAGCAUCA
B6: chr4:102797111:102797208:-|3pUTR|ENSG00000109332|msi1_unk|total|mutant (ssRNA)
RNA: GGGAGUUCUACAGUCCGACGAUCUCUGAGAAGACUUAAGUUCUUCCAGCUUUGGACAAUAACUGCUUUCCGAAACUGUAAAGCCGUUACAAGAGAACAGUUGCCCAAGACUCAGAAUUUUUAAAAAAAAAAAUGGAGCAUGUGCAACAGAGGAUUGAGCAUCA
B7: chr19:35555165:35555334:-|CDS|ENSG00000105675|control|control|control (ssRNA)
RNA: GGGAGUUCUACAGUCCGACGAUCGGCCGUCACGGGGGAUGGUGUGAAUGACUCCCCAGCUCUGAAGAAGGCAGACAUCGGAGUAGCCAUGGGCAUCGCUGGCUCAGAUGCUGCCAAAAAUGCAGCUGACAUGAUCCUGCUGGACAACAGAGGAUUGAGCAUCA
B8: chr9:135932998:135933099:-|3pUTR|ENSG00000130560|unk|total|mutant (ssRNA)
RNA: GGGAGUUCUACAGUCCGACGAUCGCUGCUUGAAUUGCCGUGCCGACAUUUGCUUGGAGAGUCCACUUGUUAUUUGACGGAGGCCGGUUUCAACCCAGAGUUAAUGUCAAGCAUGCUAAUUUAACCCGUCACUCACAGAUGACUCAACAGAGGAUUGAGCAUCA
B9: ENSG00000164574:stop:overlap|stop_codon|ENSG00000164574|stop_codon|NA|stop_codon (ssRNA)
RNA: GGGAGUUCUACAGUCCGACGAUCUCGACGACUUCAGUGAUCGAGAUCUGCCGACUGCAUCAACUCCCUCUCCCUUUGUGUGCUAGAGACCCUUCAGCAUACGCAGCUCUGGGAUGAUGCCAGGAUUCCAUUUGGAGACUUCUGCAACAGAGGAUUGAGCAUCA
B10: chr11:119418629:119418730:-|3pUTR|ENSG00000154096|msi1|FALSE|unique (ssRNA)
RNA: GGGAGUUCUACAGUCCGACGAUCCCUCAGAGGCCUUGGGGCAUGACCCAGUGAAGAUGCAGGUUUGACCAGGAAAGCAGCGCUAGUGGAGGGUUGGAGAAGGAGGUAAAGGAUGAGGGUUCAUCAUCCCUCCCUGCCUAAGGACAACAGAGGAUUGAGCAUCA
B11: chr10:30461265:30461366:+|3pUTR|ENSG00000107968|unk|total|mutant (ssRNA)
RNA: GGGAGUUCUACAGUCCGACGAUCUCUUUGAGCCUUUAUUGGUAAAUUCUGGUAUACAUUGAAUUCAUUAUAAUUUGGGUGACCCGAACAACUUGAAGAUUGCCGCAAUAAGCUGGACCCGUGUCCUAAAAAUGGCUAACUGAUCAACAGAGGAUUGAGCAUCA
B12: chr11:110579372:110581225:-|CDS|ENSG00000137727|control|control|control (ssRNA)
RNA: GGGAGUUCUACAGUCCGACGAUCUAGUCAGAGCUCUUCUGGUUCUCUGCCUUGGGAAAGAGCCUCAGCCAGCUCUUGGACUCUAGAGGAUGCGACCAGCCCAGACUCAGGGCCUACAGUGGUCUGCGACAUUGAGGACAGGUACAACAGAGGAUUGAGCAUCA
B13: chr15:100649042:100649144:+|3pUTR|ENSG00000183475|unk|FALSE|unique (ssRNA)
RNA: GGGAGUUCUACAGUCCGACGAUCUACCUCUGCUUUUCUUUUGCUGUGCUCUUGUUUUUAACUUAUUUUUUUUUUAACAACUGUAGUACACUACCCUGAGACACUGCAUCUCGAUUUCUAUCUCUAGUUAGAGUUGUACUUUUACAACAGAGGAUUGAGCAUCA
B14: chr9:34241424:34241533:+|CDS|ENSG00000165006|unk|FALSE|unique (ssRNA)
RNA: GGGAGUUCUACAGUCCGACGAUCAACCCCAUCCUCGCCAGCUUGCAGCACAACAGCAUCCUCACACCAACUCGGGUCAGCAGUAGUGCCACGAAACAGAAAGUUCUCAGCCCACCUCACAUAAAGGCGGAUUUCAAUCUUGCUCAACAGAGGAUUGAGCAUCA
B15: ENSG00000198589:be:win_2551|CDS|ENSG00000198589|bound_else_gene|NA|bound_elsewhere_windowed (ssRNA)
RNA: GGGAGUUCUACAGUCCGACGAUCAAUAACAGUAGAGAAAACAGGAGGAGCUUGCUACAAUGCUCUGUGUGGCAAGAAUGGAUGCUUUCUCUCUGCUAUUUUAAUCCUAAGAAUUCAGAUGAGCAAAAGAUAACAGAAAUGGUACAACAGAGGAUUGAGCAUCA
B16: chr14:70725707:70725808:-|3pUTR|ENSG00000006432|unk|FALSE|unique (ssRNA)
RNA: GGGAGUUCUACAGUCCGACGAUCGUCGAAUAUCAGCUAUUUCAUAUGGUUCACCCUAAUGUACCUGCCUCUCUCUUUGGCUUUAGGUCUGAGAAUGACUUGUCUUUGUCAAGGUAUACUAUUGUUAGAAACGCAUUACCAAAUCAACAGAGGAUUGAGCAUCA
B17: chr10:101781316:101781432:-|3pUTR|ENSG00000107833|unk|total|mutant (ssRNA)
RNA: GGGAGUUCUACAGUCCGACGAUCCCCACCUGCCUGUGAGAAUUGGAGGUCCGUGCCUGAAGCUCAGAGCUACACAUUUUUAACCGUUUUUACAUUUUUGGAUAAAGGUUGAAAUAAAGUGGUGUGGAGUUUUUGCAGCUCUUGCAACAGAGGAUUGAGCAUCA
B18: chr2:190436306:190436418:+|CDS|ENSG00000151690|unk|total|mutant (ssRNA)
RNA: GGGAGUUCUACAGUCCGACGAUCCCUUUUGCCUGUGUAUUACAAACAGCUGGGAAUGUCUCCAAGCCAGAGUGGACUACCCGCCGGUAUUCGUUACUUCAUUGAAUUCUGCAGUGCCCCCUUUUGGGGUGCCGUUGCAGACCGCAACAGAGGAUUGAGCAUCA
B19: chr8:100287602:100287712:-|CDS|ENSG00000034677|unk|FALSE|unique (ssRNA)
RNA: GGGAGUUCUACAGUCCGACGAUCUGUGUGGAUUGCUUACGACAAUAUUUAAGGAUAGAAAUCUCUGAAAGCAGAGUUAAUAUUAGUUGCCCAGAAUGUACUGAACGGUUUAAUCCCCAUGAUAUUCGCUUGAUAUUAAGUGAUCAACAGAGGAUUGAGCAUCA
B20: ENSG00000107863:be:win_1101|CDS|ENSG00000107863|bound_else_gene|NA|bound_elsewhere_windowed (ssRNA)
RNA: GGGAGUUCUACAGUCCGACGAUCGGCUCCCUCUGUAUCUGUUAAUCACUAUUCGCCAAAUUCCCAUCAGCACAUAGACUGGAAAAACUAUAAAACUUACAAAGAGUAUAUUGAUAACAGACGAUUGCACAUAGGUUGUCGGACCAACAGAGGAUUGAGCAUCA
B21: ENSG00000165434:stop:overlap|stop_codon|ENSG00000165434|stop_codon|NA|stop_codon (ssRNA)
RNA: GGGAGUUCUACAGUCCGACGAUCAUGCUCUGAUAGAGAAUUUUCUUCAGCCUAGUAAGAAUGGACUGAUCUGGCGUUCUGUUUAGGGGUACACCAAUAUGUCAUGACACUGUGUGGGCAUAUGGAACAGAGCAACCGAGAACUCAACAGAGGAUUGAGCAUCA
B22: chr3:48693060:48693174:-|CDS|ENSG00000068745|unk|FALSE|unique (ssRNA)
RNA: GGGAGUUCUACAGUCCGACGAUCCCUUCCAGGUGUGGUAUCUGUGCGCUUUGAAGAAGAUGAAGACAGGAACUUGUGUCUAAUAGCAUAUCCAUUGAAAGGGGACCAUGGAAUUGUGGACAUUGUAGAUAAUUCAGACUGUGACAACAGAGGAUUGAGCAUCA

The list shows a part of the results.

This assay concerns the target MSI1 full-length (mouse, UniProt Q61474 1-362). As to the kind of experiment: nsRBNS (natural sequence RNA bind-n-seq); RBNS binding buffer (assumed for nsRBNS): 25 mM Tris pH 7.5, 150 mM KCl, 3 mM MgCl2, 0.01% Triton X-100, 500 ug/ml BSA, 20 U/ml SUPERase-In, 4 C; UNK is unkempt and MSI1 is Musashi-1; names of the RNAs are library labels; protein concentration not given here; high values mean tight binding.
Chain of UniProt Q61474 (Q61474 whole entry): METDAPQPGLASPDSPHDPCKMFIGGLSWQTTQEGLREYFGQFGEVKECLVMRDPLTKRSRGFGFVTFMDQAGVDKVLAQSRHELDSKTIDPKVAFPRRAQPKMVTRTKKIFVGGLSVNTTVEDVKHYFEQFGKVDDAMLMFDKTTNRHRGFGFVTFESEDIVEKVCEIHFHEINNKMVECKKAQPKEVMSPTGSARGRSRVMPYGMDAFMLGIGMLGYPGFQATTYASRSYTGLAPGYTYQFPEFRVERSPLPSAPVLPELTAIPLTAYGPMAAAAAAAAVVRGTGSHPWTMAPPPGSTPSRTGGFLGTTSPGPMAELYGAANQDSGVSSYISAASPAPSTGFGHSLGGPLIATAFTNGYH
The molecule B1 returned a binding signal of 7.93 enrichment R.

Molecule B2 came in with a binding signal of 0.339 enrichment R.

Turning to B3, the binding signal turned out to be 0.32 enrichment R.

B4 returned a binding signal of 0.295 enrichment R.

In the case of B5, the binding signal is 0.536 enrichment R.

Turning to B6, the binding signal is 0.232 enrichment R.

In the case of B7, the binding signal was determined as 0.465 enrichment R.

In turn, B8 returned a binding signal of 0.28 enrichment R.

For B9, the binding signal was found to be 0.5 enrichment R.

The molecule B10 had a binding signal of 0.499 enrichment R.

B11 had a binding signal of 0.295 enrichment R.

For B12, the binding signal is 0.42 enrichment R.

B13 came in with a binding signal of 8.08 enrichment R.

Consider B14, for which the binding signal turned out to be 0.718 enrichment R.

The molecule B15 showed a binding signal of 0.493 enrichment R.

As to B16, the binding signal amounted to 2.72 enrichment R.

B17 had a binding signal of 0.27 enrichment R.

On to B18, for which the binding signal came to 0.266 enrichment R.

With B19, the binding signal worked out at 22.4 enrichment R.

B20 came in with a binding signal of 0.851 enrichment R.

Molecule B21 registered a binding signal of 0.608 enrichment R.

Consider B22, for which the binding signal was 0.68 enrichment R.

Source of the values: article PMC12136788.
